{
  "source": "PubChem BioAssay AID504332",
  "about": "(National Center for Advancing Translational Sciences (NCATS), 2011)",
  "note": "About 31,000 (8.9%) of roughly 350,000 compounds were called active. Inconclusive results, whose numbers are uncertain, are shown with a selection of clear calls. Calls follow the shape of the dose curve; as a rule, active = well fitted inhibition curve with a large enough effect; inconclusive = small, poorly fitted or top-dose-only effect; inactive = no such curve, though single readings can be large or run the other way. A potency beside an inconclusive call is a rough fit, not a confirmed value. % is scaled to controls: 0 for no effect and ±100 for the full control effect; potency is read from the fitted curve at half-maximal effect; tags tell the direction and shape of the fitted curve.",
  "data": [
    {"target": "Histone-lysine N-methyltransferase EHMT2 (Homo sapiens) (UniProt Q96KQ7)", "sequence (Q96KQ7 whole entry, looked up)": "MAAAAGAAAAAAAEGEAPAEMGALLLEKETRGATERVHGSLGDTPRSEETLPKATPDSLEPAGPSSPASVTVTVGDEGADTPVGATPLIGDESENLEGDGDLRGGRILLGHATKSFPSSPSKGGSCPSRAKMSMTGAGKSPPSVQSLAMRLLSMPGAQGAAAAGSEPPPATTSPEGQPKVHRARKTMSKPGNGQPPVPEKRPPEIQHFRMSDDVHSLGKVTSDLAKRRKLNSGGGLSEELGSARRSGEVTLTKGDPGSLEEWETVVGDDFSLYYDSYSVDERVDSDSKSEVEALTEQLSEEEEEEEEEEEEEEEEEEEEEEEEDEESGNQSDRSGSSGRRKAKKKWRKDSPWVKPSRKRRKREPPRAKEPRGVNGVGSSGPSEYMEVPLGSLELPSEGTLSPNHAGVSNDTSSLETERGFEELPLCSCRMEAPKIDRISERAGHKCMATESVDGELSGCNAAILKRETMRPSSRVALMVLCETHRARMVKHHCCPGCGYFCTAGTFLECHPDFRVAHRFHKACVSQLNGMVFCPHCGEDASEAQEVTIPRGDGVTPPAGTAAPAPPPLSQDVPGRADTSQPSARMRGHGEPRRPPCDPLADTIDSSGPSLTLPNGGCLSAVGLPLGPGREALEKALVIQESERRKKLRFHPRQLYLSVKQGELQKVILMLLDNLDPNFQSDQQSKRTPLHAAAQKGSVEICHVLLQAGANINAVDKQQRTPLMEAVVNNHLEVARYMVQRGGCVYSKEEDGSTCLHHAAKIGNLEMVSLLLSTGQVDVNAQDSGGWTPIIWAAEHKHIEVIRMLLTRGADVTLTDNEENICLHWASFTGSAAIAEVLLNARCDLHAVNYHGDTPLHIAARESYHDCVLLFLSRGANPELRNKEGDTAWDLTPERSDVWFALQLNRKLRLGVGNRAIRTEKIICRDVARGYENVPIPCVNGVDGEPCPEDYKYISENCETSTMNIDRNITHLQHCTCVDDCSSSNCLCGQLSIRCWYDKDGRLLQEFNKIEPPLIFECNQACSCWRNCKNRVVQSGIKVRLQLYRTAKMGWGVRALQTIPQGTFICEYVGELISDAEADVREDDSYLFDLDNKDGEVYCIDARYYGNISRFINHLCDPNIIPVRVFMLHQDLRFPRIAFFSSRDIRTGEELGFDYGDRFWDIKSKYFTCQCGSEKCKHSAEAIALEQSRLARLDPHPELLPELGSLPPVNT", "assay": "qHTS Assay for Inhibitors of Histone Lysine Methyltransferase G9a; also: nearly all actives have a fitted effect of over 75% in size", "conditions": "G9a H3K9 monomethylation, AlphaScreen, 2 h; activity, negative = inhibition: at 59 µM (top of the series) unless noted", "outline": "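Using a bead-based AlphaScreen, monomethylated H3K9 product from 2 h room-temperature reactions (G9a 20 nM, peptide 500 nM, SAM 20 uM) was detected with 0.5 ug/mL rabbit anti-H3K9me1 antibody.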", "values": [
      {"compound": "CC(C)CCNC(=O)c1cn(C)c2ccc(S(=O)(=O)N3CCOCC3)cc2c1=O", "Potency": "inactive"},
      {"compound": "CC1CCCN(CCCOc2ccc(Cl)cc2Br)C1", "note": "(stereo not drawn)", "Potency": "active: 10 µM"},
      {"compound": "O=C(NCc1ccc(OC(F)(F)F)cc1)C12CN(Cc3ccccc3)CC1C(c1cccc([N+](=O)[O-])c1)=NO2", "note": "(stereo not drawn)", "activity, negative = inhibition": "inconclusive: -60.2% [inhibitor] [at 12.7 µM]"},
      {"compound": "CCOC(=O)c1ccccc1NC(=O)c1nn(C)c2c1COc1ccccc1-2", "Potency": "inactive"},
      {"compound": "O=C(NCCN1CCCCCC1)c1ccc(N2CCCC2=O)cc1", "Potency": "inconclusive: 22.4 µM [inhibitor, single point]"},
      {"compound": "CC1=NN(c2nc(-c3ccccc3)cs2)C(=O)C1N=Nc1ccccc1", "note": "(stereo not drawn)", "Potency": "inconclusive: 6.31 µM [inhibitor, full curve]"},
      {"compound": "Cc1ccc(CNC(=O)CSC2=Nc3ccccc3C3=NC(C)C(=O)N23)cc1", "note": "(stereo not drawn)", "Potency": "inconclusive: 31.6 µM [inhibitor, single point]"},
      {"compound": "Cc1ccc2occ(CC(=O)N3CCN(c4cccc(Cl)c4)CC3)c2c1", "Potency": "inactive"},
      {"compound": "Cc1cc(Cl)ccc1NC(=O)c1cc2ccccn2n1", "Potency": "inactive"},
      {"compound": "CCCN1CCN(CCCNC(=O)Cn2c(-c3cccs3)cc3cc(Cl)ccc32)CC1", "Potency": "inconclusive: 28.2 µM [inhibitor, partial curve, poor fit]"},
      {"compound": "CCC(C)NC(=O)CSc1nc2cc3c(cc2c(=O)n1CCCCCC(=O)NCc1ccc(OC)cc1)OCO3", "note": "(stereo not drawn)", "Potency": "inactive"},
      {"compound": "CCS(=O)(=O)N1CCc2cc(C(=O)Nc3ccc(OC)cc3OC)ccc21", "Potency": "inactive"},
      {"compound": "CCC1CCCCN1Cc1cn2c(-c3ccc(Br)cc3)nnc2s1", "note": "(stereo not drawn)", "Potency": "inactive"},
      {"compound": "COc1ccc(C[C@H]2CN3C(=NC[C@@H]3Cc3ccccc3)N2C[C@H](C)NC(=O)CCC2CCCCC2)cc1", "Potency": "inactive"},
      {"compound": "Cc1cccc(C(=O)N/N=C/c2cc(Br)c(Br)o2)c1", "Potency": "inconclusive: 89.1 µM [inhibitor, single point]"},
      {"compound": "CCOc1ccccc1NC(=O)CN1CCN(S(=O)(=O)c2ccc(Br)cc2)CC1", "Potency": "inactive"},
      {"compound": "O=C(N/N=C/c1ccc(N2CCOCC2)cc1)c1cccs1", "Potency": "inactive"},
      {"compound": "O=C(CSc1nnc(CNC(=O)c2ccco2)o1)Nc1ccc(Br)cc1", "Potency": "active: 10 µM"},
      {"compound": "O=C(COC(=O)c1cccnc1)Nc1cccc(Cl)c1", "Potency": "inconclusive: 50.1 µM [inhibitor, partial curve]"},
      {"compound": "CCc1cccc(NC(=O)CCS(=O)(=O)c2cc3c4c(c2)CCN4C(=O)CC3)c1", "Potency": "inconclusive: 35.5 µM [inhibitor, single point]"},
      {"compound": "CCN(C(=O)COC(=O)CNS(=O)(=O)c1ccc(SC)c([N+](=O)[O-])c1)C1CCCCC1", "Potency": "inconclusive: 56.2 µM [inhibitor, partial curve, poor fit]"},
      {"compound": "COc1ccc(NC(=O)Cc2coc3ccc4ccccc4c23)cc1S(=O)(=O)N1CCOCC1", "Potency": "inconclusive: 17.8 µM [inhibitor, single point]"},
      {"compound": "CC1CCN(C(=O)c2ccc(NC3=C(Cl)C(=O)N(Cc4ccccc4)C3=O)cc2)CC1", "Potency": "inconclusive: 44.7 µM [inhibitor, partial curve, poor fit]"},
      {"compound": "COc1cc2c(C(=O)N3CCN(C)CC3)c(CSc3ccccc3)n(C)c2cc1Br", "Potency": "inconclusive: 50.1 µM [inhibitor, partial curve, poor fit]"},
      {"compound": "CCCCN(C)CCn1c(=S)[nH]c2ccc(N3CCOCC3)cc2c1=O", "activity, negative = inhibition": "inconclusive: -85.4% [inhibitor]"},
      {"compound": "COc1ccccc1Nc1nc(N)nc(CN2CCc3ccccc3C2)n1", "Potency": "inconclusive: 39.8 µM [inhibitor, single point]"},
      {"compound": "C=Cc1c(C)c2cc3nc(cc4[nH]c(cc5nc(cc1[nH]2)C(C)=C5CCC(=O)O)c(CCC(=O)OC)c4C)[C@@]1(C)C3=CC=C(C(=O)OC)[C@H]1C(=O)OC", "note": "(tested in a mixture with another compound)", "activity, negative = inhibition": "inactive: 329% [at 12.7 µM]"},
      {"compound": "CCCOc1ccc(C(=O)N/N=C/c2ccc(-c3ccc(S(=O)(=O)Nc4ncccn4)cc3)o2)cc1", "Potency": "inconclusive: 3.98 µM [inhibitor, full curve, poor fit]"},
      {"compound": "CCCCNC(C(=O)Nc1cccc(S(=O)(=O)N2CCOCC2)c1)c1ccccc1", "note": "(stereo not drawn)", "Potency": "inactive"},
      {"compound": "COc1ccc(C(c2c(NC(=O)c3ccco3)sc(C)c2C)N2CCOCC2)cc1OC", "note": "(stereo not drawn)", "Potency": "inconclusive: 25.1 µM [inhibitor, single point]"},
      {"compound": "CCN1CCN(C(c2ccccc2Cl)c2c(O)cc(C)n(CCOC)c2=O)CC1", "note": "(stereo not drawn)", "Potency": "inconclusive: 39.8 µM [inhibitor, single point]"},
      {"compound": "Cn1c(O)c(N=NC(=S)Nc2ccccc2F)c2cc(S(=O)(=O)N3CCOCC3)ccc21", "Potency": "active: 31.6 µM"},
      {"compound": "O=c1nc2s/c(=C\\c3ccc(-c4ccccc4[N+](=O)[O-])o3)c(=O)n2nc1-c1ccccc1", "Potency": "inconclusive: 3.16 µM [inhibitor, partial curve, poor fit]"},
      {"compound": "CCc1nnc(NC(=O)c2nc(Cl)ccc2Cl)s1", "Potency": "inconclusive: 79.4 µM [inhibitor, single point]"},
      {"compound": "CC(C)CC(=O)Nc1nc(-c2ccc(S(=O)(=O)N3CCOCC3)cc2)cs1", "Potency": "inconclusive: 79.4 µM [inhibitor, single point]"},
      {"compound": "Cc1ccc(CNC(=O)Cn2c(=O)c3sccc3n(Cc3cccc([N+](=O)[O-])c3)c2=O)cc1", "Potency": "inconclusive: 79.4 µM [inhibitor, single point]"},
      {"compound": "Cc1ccc(/C=N/NC(=O)CNC(=O)COc2ccc(Cl)cc2)o1", "Potency": "inconclusive: 79.4 µM [inhibitor, single point]"},
      {"compound": "CCc1ccc(C2CC(=O)N3CN(c4ccccc4)CSC3=C2C#N)cc1", "note": "(stereo not drawn)", "Potency": "active: 0.891 µM"},
      {"compound": "c1cc(N2CCCC2)ccc1C(c1nnnn1C1CCCCC1)N1CCOCC1", "note": "(stereo not drawn)", "Potency": "active: 10 µM"},
      {"compound": "COc1ccc(CCNC(=O)C2CC(=O)N(c3ccc(C(C)(C)C)cc3)C2)cc1OC", "note": "(stereo not drawn)", "Potency": "inconclusive: 79.4 µM [inhibitor, single point]"},
      {"compound": "Oc1ccc[n+](/C=C\\c2ccccc2)c1", "activity, negative = inhibition": "inactive: 0.428% [at 2.33 µM]"},
      {"compound": "COc1ccc(CCNc2oc(COc3ccccc3F)nc2C#N)cc1", "Potency": "active: 35.5 µM"},
      {"compound": "O=C(NCc1cccs1)C(=O)NCC(c1ccco1)N1CCN(c2ccc(F)cc2)CC1", "note": "(stereo not drawn)", "Potency": "inconclusive: 44.7 µM [inhibitor, partial curve]"},
      {"compound": "CCCCCc1cc(=O)[nH]c(=S)[nH]1", "Potency": "inconclusive: 100 µM [inhibitor, single point]"},
      {"compound": "O=C(c1ccc(Cl)s1)N1CCN(c2ccccc2)CC1", "Potency": "inconclusive: 39.8 µM [inhibitor, single point]"},
      {"compound": "CC1(C)CCC(C)(C)c2cc(NC(=O)c3ccc(C(=O)O)cc3)ccc21", "activity, negative = inhibition": "inactive: -12.2% [at 12.7 µM]"},
      {"compound": "CCOC(=O)CN1C(=O)S/C(=C/c2ccco2)C1=O", "Potency": "inconclusive: 89.1 µM [inhibitor, single point]"},
      {"compound": "COC(=O)C1=C(C(=O)OC)[C@@H]2N(C)c3ccc(OC)cc3[C@@]23C[C@@H](C(=O)OC)N(C(=O)C2CCC2)C3=N1", "activity, negative = inhibition": "inconclusive: -62.7% [inhibitor] [at 12.7 µM]"},
      {"compound": "Cc1c(CC(=O)O)c(=O)oc2c(C)c(OCc3nn[nH]n3)ccc12", "Potency": "inconclusive: 50.1 µM [inhibitor, partial curve, poor fit]"},
      {"compound": "COCc1nnc(NC(=O)c2sc3ccccc3c2Cl)s1", "activity, negative = inhibition": "inconclusive: -71% [inhibitor]"},
      {"compound": "Cc1cc(/C=N/NC(=O)C(O)(c2ccccc2)c2ccccc2)c(C)n1-c1cccc(C(=O)O)c1", "Potency": "active: 39.8 µM"},
      {"compound": "CCOc1ccc(N2C(=O)CC(Sc3ccccc3C(=O)O)C2=O)c([N+](=O)[O-])c1", "note": "(stereo not drawn)", "Potency": "active: 1.41 µM"},
      {"compound": "O=C(Cn1c(=O)oc2ccccc21)Nc1nc(-c2ccccc2)cs1", "Potency": "inactive"},
      {"compound": "Cc1ccc(S(=O)(=O)N2CCN(Cc3nc4ccc(C)cc4o3)CC2)c(C)c1", "Potency": "inactive"},
      {"compound": "COc1ccc(NC(=S)NCCC(c2ccccc2)c2ccccc2)c(OC)c1", "Potency": "inconclusive: 22.4 µM [inhibitor, full curve]"},
      {"compound": "CCCC(=O)NC(=S)Nc1ccc(S(=O)(=O)Nc2ccc(OCC)cc2)cc1", "Potency": "inconclusive: 39.8 µM [inhibitor, single point]"},
      {"compound": "Cc1ccc(OCCCC(=O)Nc2ccc(S(=O)(=O)Nc3ccccn3)cc2)cc1", "Potency": "inconclusive: 89.1 µM [inhibitor, single point]"},
      {"compound": "COc1ccc(S(=O)(=O)NC(C)C(=O)Nc2cccc(C(C)=O)c2)cc1", "note": "(stereo not drawn)", "activity, negative = inhibition": "inconclusive: -70.4% [inhibitor]"},
      {"compound": "O=C(N/N=C/c1cccc(O)c1)c1ccc(-n2cnnn2)cc1", "Potency": "inactive"},
      {"compound": "c1ccc2c(c1)ccc1nnc(SCc3ccc4c(c3)OCCO4)n12", "Potency": "inconclusive: 50.1 µM [inhibitor, partial curve]"},
      {"compound": "COc1cccc2sc(N(C)c3ccccc3)nc12", "Potency": "inactive"},
      {"compound": "CN1CCN(C(=O)c2ccccc2Nc2ccc(SC(F)F)cc2)CC1", "Potency": "inconclusive: 50.1 µM [inhibitor, partial curve, poor fit]"},
      {"compound": "O=C(CSc1nnc(-c2ccco2)o1)c1ccc[nH]1", "Potency": "active: 39.8 µM"},
      {"compound": "Fc1ccc(CN2CCCCCCC2)c(F)c1", "Potency": "inconclusive: 17.8 µM [inhibitor, single point]"},
      {"compound": "CN1C(=O)/C(=C/c2ccccc2OCc2ccc(F)cc2)N(C)C1=S", "Potency": "inactive"},
      {"compound": "Cc1ccc2occ(C(c3nnnn3C3CCCC3)N3CCN(C(=O)c4ccco4)CC3)c(=O)c2c1", "note": "(stereo not drawn)", "Potency": "inactive"},
      {"compound": "COc1ccc(Nc2nc(C)nc(N)c2S(=O)(=O)c2ccccc2)cc1", "Potency": "inactive"},
      {"compound": "COc1ccc(S(=O)(=O)NNC(=O)C2CC(c3cccnc3)=NO2)cc1", "note": "(stereo not drawn)", "Potency": "inconclusive: 79.4 µM [inhibitor, partial curve, poor fit]"}
    ]}
  ]
}
